Assay results reported in PubChem BioAssay (NCATS).
Inconclusive results, whose numbers are uncertain, are shown with a selection of clear calls. Potencies of inconclusive entries are doubtful fits and often do not repeat. Active and inactive are the calls of the source. Calls come from the whole dose curve; as a rule, active = well fitted activation curve with a large enough effect in the signal ratio, with a control signal flat (not every such curve was filed as active); inconclusive = small, poorly fitted or top-dose-only effect, or effect the other way, or a change in a side signal; inactive = flat fitted curve, though single readings scatter; the % refers to the signal ratio.

Experiment: qHTS Assay for Identification of Small Molecule Agonists for Hypoxia Response Element Signaling Pathway (AID 914); for activation: top concentration of the series differs between compounds; % of control where 0% means no effect
Conditions: ME-180 (cervical carcinoma) HRE-bla reporter, beta-lactamase ratio, CoCl2, 17 h; activation: stronger effect = higher value
How it was run: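 qHTS titration; ME-180 HRE-bla cells; EC50 CoCl2 co-treatment, 17 h at 37 degrees Celsius; CCF4 dye, ex 405nm, em 460nm and 530nm; %Activity from ratio; AC50.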
Potency is the fitted concentration of half-maximal effect; tags give direction and shape of the fitted curve or compound fluorescence and quenching.

activation, inactive:
Cn1c(=O)c(-c2cc(F)cc(F)c2)nc2cnc(N3CCOCC3)nc21 -3.42%
Cn1c(=O)c2c(nc(Oc3ccc4c(c3)OCO4)n2Cc2ccc(F)cc2)n(C)c1=O -23.2%
C/C(CCN1CCCc2nc(C)c(C)cc21)=N\O[C@@H](C)c1cn([C@@H]2COC[C@@H]2O)nn1 8.15%
COc1ccc(C2C(C#N)=C(N)Oc3n[nH]c(C)c32)cc1CSc1ccccn1 (centres undefined) -21.4%
O=C(O)CC(NC(=O)COc1ccc(Cl)cc1Cl)C(=O)O (centres undefined) 3.63%
O=C(Cn1ccc(=O)[nH]c1=O)Nc1ccc(C(=O)O)c(O)c1 6.06%
O=C(O)[C@@H]1[C@@H](C(=O)Nc2ncccn2)[C@@H]2C=C[C@@H]1O2 18.9%
N#Cc1cccc(NC(=O)N2CCC3(CC2)CCN(C(=O)c2csnn2)CC3)c1 -0.636%
COC(=O)C/C=C\[C@@H](C)[C@@H](/C=N\O[C@@H](C)CN1CCCc2nc(C)c(C)cc21)NS(=O)(=O)c1ccc(C)cc1 4.52%
CCCCOc1ccc(CSC(CC(=O)O)C(=O)O)cc1 (centres undefined) 26.9%

activation, inconclusive:
CCOC(=O)CCN1C(=O)[C@H]2[C@@H]3[C@H](O)C=CC(=O)[C@H]3CC[C@H]2C1=O -17.3%
COc1ccc(OC)c(C2=Nn3c(nnc3-c3ccco3)SC2)c1 -26.8%
COc1ccc(CN2CCC(=O)NC2=O)cc1 -3.59%
CCC(CC)C1C(C#N)=C(N)Oc2n[nH]c(C)c21 (centres undefined) -39.2%
Cc1cc2c(c(=O)o1)C(Cc1ccccc1)C(C#N)=C(N)O2 (centres undefined) 23.1%
Cn1c(=O)c2[nH]c(CCS)nc2n(C)c1=O 22.4%
Cc1c(Cl)cccc1N1C(=O)C2ON(c3ccccc3)C(c3cccnc3)C2C1=O (centres undefined) 15%
C[C@H](CC(=O)O)C(C(=O)O)C(=O)O -4.09%
C[C@@H](N=C(N)N)C(=O)O 7.1%
CCN1C(=O)[C@H]2[C@H]3[C@H](O)[C@H](O)C/C(=N/OC[C@@H]4O[C@H](c5ccccc5)C=C[C@@H]4Oc4ccc(OC)cc4)[C@@H]3CC[C@@H]2C1=O -20.1%
CN1C(=O)c2c(sc3c2CCCC3)NC1c1ccccc1O (centres undefined) -32.6%

Potency, inconclusive:
COC(=O)c1ccc(C2/C(=C(/O)c3ccc(OC)cc3)C(=O)C(=O)N2c2cc(C)on2)cc1 (centres undefined) 10 µM [inhibitor, single point]
c1coc(CNc2ncnc3ccccc23)c1 5.01 µM [inhibitor, partial curve]
N#Cc1c(SCC(=O)O)nc(N2CCCCC2)c2c1CCCC2 2.51 µM [inhibitor, full curve]
CCOC(=O)c1[nH]c2ccc(Br)cc2c1NC(=O)CCN1CCN(C(=O)OCC)CC1 3.16 µM [inhibitor, partial curve]
CN1CCCC2(CCN(C(=O)c3cnccn3)CC2)C1 1 µM [activator, single point]
C=CCNc1nc(NCc2ccccc2)c(C#N)c2c1CN(C)CC2 6.31 µM [inhibitor, partial curve]
Cc1ccc(C)c(OCc2nnc(NC(=O)c3ccco3)s2)c1 5.01 µM [inhibitor, partial curve]
Cn1c(=O)c2c(nc(Br)n2CCSc2nc3ccccc3o2)n(C)c1=O 10 µM [inhibitor, partial curve]
